Assay results as given in publication PMC4336329 (PLoS ONE, 2015).
The whole screen tested about 310,000 compounds, of which about 2,200 (0.71%) showed an effect of 50% or more. The effect is printed as a negative number. Some of the results follow.

Molecular target: human ether-à-go-go-related gene (hERG) potassium channel (human, UniProt Q12809)
Assay: primary screen, population patch clamp on CHO cells stably expressing hERG

Chain of human ether-à-go-go-related gene (hERG) potassium channel (Q12809 whole entry, looked up): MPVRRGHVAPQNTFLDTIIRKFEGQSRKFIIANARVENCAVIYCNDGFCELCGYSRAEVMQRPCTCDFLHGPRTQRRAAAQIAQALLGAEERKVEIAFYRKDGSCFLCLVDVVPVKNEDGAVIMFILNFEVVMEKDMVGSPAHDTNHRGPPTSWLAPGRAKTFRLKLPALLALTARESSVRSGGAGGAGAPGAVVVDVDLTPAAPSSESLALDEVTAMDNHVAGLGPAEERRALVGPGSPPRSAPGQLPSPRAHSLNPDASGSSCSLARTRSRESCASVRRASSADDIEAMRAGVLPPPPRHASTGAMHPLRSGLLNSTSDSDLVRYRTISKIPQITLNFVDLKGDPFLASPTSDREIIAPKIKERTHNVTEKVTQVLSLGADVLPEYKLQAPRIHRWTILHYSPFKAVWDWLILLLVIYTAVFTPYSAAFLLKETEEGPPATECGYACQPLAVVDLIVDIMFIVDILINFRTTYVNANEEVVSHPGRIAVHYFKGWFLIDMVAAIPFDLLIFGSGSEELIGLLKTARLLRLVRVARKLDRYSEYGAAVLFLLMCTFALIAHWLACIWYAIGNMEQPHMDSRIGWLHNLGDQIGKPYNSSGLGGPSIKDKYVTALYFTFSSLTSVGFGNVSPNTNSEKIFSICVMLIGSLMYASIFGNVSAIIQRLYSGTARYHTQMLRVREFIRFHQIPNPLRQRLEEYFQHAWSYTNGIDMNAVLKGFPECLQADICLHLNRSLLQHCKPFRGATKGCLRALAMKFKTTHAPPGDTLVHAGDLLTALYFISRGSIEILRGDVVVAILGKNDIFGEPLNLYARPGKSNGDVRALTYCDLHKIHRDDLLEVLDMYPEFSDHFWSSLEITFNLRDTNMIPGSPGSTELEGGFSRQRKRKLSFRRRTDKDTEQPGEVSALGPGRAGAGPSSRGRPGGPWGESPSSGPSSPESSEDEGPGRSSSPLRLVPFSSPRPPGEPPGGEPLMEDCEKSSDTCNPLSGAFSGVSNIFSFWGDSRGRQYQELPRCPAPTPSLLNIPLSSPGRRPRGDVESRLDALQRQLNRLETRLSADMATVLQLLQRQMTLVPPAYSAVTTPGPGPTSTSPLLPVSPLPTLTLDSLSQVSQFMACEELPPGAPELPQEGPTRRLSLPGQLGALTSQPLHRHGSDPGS

SMILES	hERG current change (%, negative = inhibition) at 1uM [%]
O=C(c1cc(-c2cccc(Cl)c2)nc2ccccc12)N1CCN(c2ccccn2)CC1	11.4
CC(C)C(=O)NC(=S)N1CCc2ccccc21	15.7
Cc1ccc(CN2CCSc3ccc(C(=O)N4CCC5(CC4)OCCO5)cc32)cc1	3.79
COc1ccccc1NC(=O)CSc1nnc2ccc(-c3ccccn3)nn12	3.98
CCOc1ccccc1CNCC1CCCO1.Cl (centres unmarked)	10.5
Cc1cc(C)nc(/N=C(\N)N2CCCCC2)n1	8.51
COc1ccc(N2CCN(C(c3cccs3)C(C)NS(C)(=O)=O)CC2)cc1 (centres unmarked)	9.25
CN1CCN(S(=O)(=O)c2cnccc2N2CCN(c3cccc(Cl)c3)CC2)CC1	11.1
CC(C)c1nc2c(s1)CCc1onc(-c3ccc(Cl)cc3)c1-2	13.9
Cc1ccc2nsnc2c1N(S(C)(=O)=O)S(C)(=O)=O	8.35
Br.COC(=O)COc1ccc(C(=O)Cn2c(NCCCO)nc3ccccc32)cc1	7.51
CCCCCCOC(=O)c1ccccc1N	6.63
Cc1ccc(-c2csc(N(CC3CCCO3)C(=O)c3ccco3)n2)cc1 (centres unmarked)	0.346
CC(=O)Nc1ccc(NC(=O)CCCN2C(=O)c3ccccc3C2=O)cc1	20.8
Cc1ccccc1OCC(=O)OCC(=O)NCCNC(=O)COC(=O)COc1ccccc1C	4.01
CCOC(=O)n1c(SCC(N)=O)nc2ccccc21	3.09
Cc1cc(Br)ccc1OCC(=O)NNC(=O)C(=O)Nc1ccccc1	13
COc1ccc(NC(=O)NNC(=O)COc2ccc3cc(Br)ccc3c2)cc1OC	10.3
CCCNC(=O)c1ccccc1NC(=O)c1ccc2c(=O)n3c(nc2c1)CCC3	-9.32
Cc1ccc(S(=O)(=O)N2CCN(C(=O)CC(C)n3cncn3)CC2)cc1C (centres unmarked)	14.7
COc1cc(C(C(=O)NC2CCCC2)N(Cc2ccccc2)C(=O)c2snc(C(N)=O)c2N)ccc1O (centres unmarked)	8.11
CC(C)C[C@H](NC(=O)C1(c2ccccc2)CCN(C(=O)OC(C)(C)C)CC1)C(=O)N1CCC[C@H]1C(=O)O	13.2

SMILES	hERG current change (%, negative = inhibition) at 1uM [%]
CCCCn1c(C)nc2cc(S(=O)(=O)N3CCOCC3)ccc21	0.87
Cc1ccc(-c2cc(C(=O)Nc3cc(C)on3)no2)cc1	15.4
Cc1ccc(C(=O)CNc2ccccc2C)cc1	12.1
CC(=O)N1CCN(S(=O)(=O)c2cccc(C(=O)Nc3ccc4c(c3)OCO4)c2)CC1	-1.51
CC(C)c1ccc(CNc2ncccn2)cc1.O=C(O)C(=O)O	11.8
O=C(c1ccc(Cl)c(S(=O)(=O)N2CCCCC2)c1)N1CCCC(C(F)(F)F)C1 (centres unmarked)	5.97
Cc1ccc(S(=O)(=O)N2CCOCC2)cc1NC(=O)COC(=O)CCOc1ccc(C(C)(C)C)cc1	0.113
CCOc1ccc(N(CC)C(=O)CCNC(=O)Cn2ccc3ccccc3c2=O)cc1	8.53
O=C(COC(=O)c1cc(S(=O)(=O)N2CCOCC2)ccc1Cl)NCc1ccco1	-1.95
Cc1cc(Br)c(NC(=O)CCNC(=O)OCc2ccccc2)cc1C	9.02
COc1ccc(CCNC(=O)Cn2ccc3c(OC)cccc3c2=O)cc1OC	-1.8
COc1ccc(-c2cc3c(=O)n(CC(=O)NCCCN4CCN(Cc5ccccc5)CC4)ncn3n2)cc1	-18.2
Cc1cc([N+](=O)[O-])nn1Cn1nc([N+](=O)[O-])cc1C	-2.28
COC(=O)c1cc(S(=O)(=O)NCc2ccc(Br)cc2)c[nH]1	10.4
CCOC(=O)N1CCC(N(CCN(C)C)C(=S)Nc2cccc(OC)c2)CC1	12.7
COc1ccc(C(=O)NCC(C)(C)CNC(=O)c2ccc(OC)cc2)cc1	1.4
CCn1nnnc1-c1ccc(OC)c(S(=O)(=O)Nc2ccc(OC)cc2)c1	4
Cc1cccc(N(C(=O)c2csnn2)C(C(=O)NC2CCCCC2)c2ccncc2)c1 (centres unmarked)	16.4
C/C(N)=C(/C#N)C(=O)CSc1nc2ccccc2c(=O)n1Cc1ccc(C)cc1	3.32
Cc1nc2c(C)cccn2c1/C(O)=C1\C(=O)C(=O)N(CCN(C)C)C1c1ccccc1 (centres unmarked)	11.9
CC(=O)Nc1sc(C)c(C)c1C(=O)OCC(=O)N(C)C1CCS(=O)(=O)C1 (centres unmarked)	-3.42
O=C(NCCc1nc2ccccc2[nH]1)/C(=C/c1ccco1)NC(=O)c1ccccc1Br	1.53
